Laboratory results taken from PubChem BioAssay AID1508623 (National Center for Advancing Translational Sciences (NCATS), 2021).
Screen size: about 48,000 compounds; about 450 (0.94%) were called active. Not shown: some 19% with an inconclusive outcome. Calls come from the whole dose curve; as a rule, active = well fitted inhibition curve with a large enough effect; inconclusive = small, poorly fitted or top-dose-only effect; inactive = no such curve, though single readings can be large or run the other way. This is one part of the list.

Assay: Primary qHTS for Identification of Small Molecule Inhibitors of Huntingtin Promoter Activity; note: nearly all actives have a fitted effect of over 50% in size
Settings: HEK293 HTT promoter firefly luciferase reporter (activity 0% = vehicle and -100% = no light), 24 h; series mostly up to 57.5 µM; activity change, negative = inhibition: at the top concentration
Summary of the method: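 Firefly luciferase signal from promoter-reporter HEK293 cells was scaled between vehicle (0%) and zero RLU (-100%). Compounds were tested at final concentrations of up to 57.5 uM over 24 h at 37 degrees C. PTC124 at 50 uM final served as control inhibitor.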

Activity change, negative = inhibition, inactive:
CCC(=O)n1nc(-c2cccnc2)nc1NCc1ccc(F)cc1 -15.5%
COc1ccc(NC(=O)c2c(NC(=O)COc3ccccc3)sc3c2CCC(C)C3)cc1 (stereo not given) 23%
O=C(NCCC1=CCCCC1)c1ccc2c(=O)n3nc(Nc4ccccc4)sc3nc2c1 -15.2%
Cc1ccc(NC(=O)CSc2nnc3[nH]c(=O)cc(-c4ccccc4)n23)cc1Cl 55.4%
COCCCNC(=O)c1cn(CCOC)c(=O)c2c1c1ccccc1n2C -14.8%
Cc1ccccc1CNC(=O)CN1C(=O)CSc2ccc(S(=O)(=O)N(C)C)cc21 -10.8%
Cc1ccc(CSc2oc(-c3cccs3)nc2S(=O)(=O)c2ccccc2)cc1 -13.4%
COc1ccccc1N1CCN(c2ncc3c(n2)CCN(Cc2ccccc2F)C3)CC1 -10.9%
COc1ccc(CCNC(=O)Cc2c(C)c3c(cc(C)c4c(C)c(C)oc43)oc2=O)cc1 0.593%
C#C[C@]1(O)CC[C@H]2[C@@H]3[C@H](C)CC4=C(CCC(=O)C4)[C@H]3CC[C@@]21C 0.185%
CCOC(=O)N1CCc2c(sc3c2c(=O)n(Cc2ccccc2)c(=O)n3Cc2ccccc2Cl)C1 -8.23%
Cc1ccc2ncc(C(=O)N3CCN(c4ccccc4F)CC3)c(=O)n2c1 -11.9%
COc1cccc(NC(=O)C2CCN(c3nnc(C)c4c(C)n(-c5ccccc5)nc34)CC2)c1 -27.7%
CCc1ccc(OCC(=O)N(Cc2ccc(C)o2)C2CCS(=O)(=O)C2)cc1 (stereo not given) -5.49%
Cc1c(NC(=O)c2cc(=O)c3ccccc3o2)c(=O)n(-c2ccccc2)n1C -6.36%
Cc1coc2c(C)c3oc(=O)c(CC(=O)NCCc4ccc(Cl)cc4)c(C)c3cc12 -7.58%
C=CCc1c(C)nc2nc(SCC(=O)Nc3ccc(C)c(C)c3)nn2c1C -10.8%
O=C(COc1ccccc1F)Nc1nnc(SCc2cc(=O)c3ccccc3[nH]2)s1 -21.6%
Cc1cccc(CSc2nc(-c3cccs3)ccc2C#N)c1 -29.5%
OC[C@@H](O)[C@@H](O)[C@H](O)[C@@H](O)CO -11.9%
COc1cccc(N2CCN(C(=O)c3cccn3-c3nnc(N4CCCC4)s3)CC2)c1 -16.5%
O=C(O)COc1nn(Cc2ccccc2)c2ccccc12 -4.88%
COc1ccc(CCN2C(=O)c3oc4cc(C)cc(C)c4c(=O)c3C2c2ccccc2F)cc1OC (stereo not given) -13.2%
COc1ccc(S(=O)(=O)Nc2ccc(-c3cn4ccsc4n3)cc2)cc1C -10%
COc1cccc(-c2nnc(SCC(=O)NC3CCCCC3)o2)c1 -18.9%
Cc1ccc(NC(=O)c2ccc(CN3C(=O)CCn4nc(C)cc43)cc2)c(Cl)c1 -7.55%
Cc1cccc(NC(=O)Cn2c(=O)ccc3cc(S(=O)(=O)N4CCCC4)ccc32)c1C -12.7%
CC(=O)c1ccc(NC(=O)C2CCC(CNS(=O)(=O)c3cccs3)CC2)cc1 (stereo not given) 7.23%
COc1cccc(Cc2nc3ccccc3nc2SCC(=O)NCc2ccc(C)cc2)c1 -5.21%
COc1ccc(CCNC(=O)c2ccc3c(c2)nc2n3CCC(C)C2)cc1OC (stereo not given) -13.4%
CCOC(=O)c1noc2nc(C)n(Cc3cccc(C#N)c3)c(=O)c12 -15.6%
O=C(NCc1ccc(F)cc1)c1ccc2c(c1)nnn2C1CCCC1 -7.99%
Cc1c(NC(=O)c2cc(-c3ccc(Cl)cc3)on2)c(=O)n(-c2ccccc2)n1C -27.9%
CCOC(=O)c1[nH]c(C)c(CCC(=O)NCc2ccc(OC)cc2)c1C -11%
Cc1ccccc1-c1nnc(SCC(=O)N(C)C2CCCCC2)o1 53.2%
CCNC(=O)c1ccc(CSc2nc3ccncc3n2Cc2ccc(F)cc2)cc1 -17.1%
CCN(C(=O)Cn1cnc2onc(-c3ccc(F)cc3)c2c1=O)c1cc(C)ccc1C -14.5%
CO[C@]12C[C@@H](COC(=O)c3cncc(Br)c3)CN(C)[C@@H]1Cc1cn(C)c3cccc2c13 -0.501%
CCCCC(=O)O[C@]1(C(=O)CO)[C@@H](C)C[C@H]2[C@@H]3CCC4=CC(=O)C=C[C@]4(C)[C@@]3(F)[C@@H](O)C[C@@]21C -2.85%
Cc1ccc(NC(=O)N2CCN(c3cc(-c4noc(C)n4)ccc3C)CC2)c(C)c1 -15.1%
CC(=O)c1ccc(NC(=O)c2nc(-c3ccc(C)cc3)n3c2CCCCC3)cc1 -29%
COc1ccc(CNc2nc3ccccc3c3nc(-c4ccccc4)nn23)cc1 -13.4%
Cc1ccc(OCC(=O)Nc2nc(-c3ccc(Br)cc3)ns2)cc1C -1.01%
Cc1ccccc1OCC(=O)Nc1ccc2nc(SCc3ccccc3)sc2c1 -0.275%
CC(=O)OCC(=O)[C@@]1(O)CC[C@H]2[C@@H]3CCC4=CC(=O)C=C[C@]4(C)[C@@]3(F)[C@@H](O)C[C@@]21C 4.51%
COc1ccc(-c2ccc(NS(=O)(=O)c3cccc(C)c3)cc2)nn1 -26.2%
COc1ccc(CCNC(=O)C2CCN(c3nc4ccccc4nc3C(F)(F)F)CC2)c(OC)c1 -9.12%
Cc1ccc(C)c(CN2C(=O)C3(c4ccccc42)N(c2ccc(Cl)cc2)C(=O)CS3(=O)=O)c1 (stereo not given) -12.4%
CC(=O)N1c2ccccc2CC1C(=O)NCc1cccc(Cl)c1 (stereo not given) 7.71%
CC(=O)OCC(=O)[C@@]1(O)CC[C@H]2[C@@H]3CCC4=CC(=O)CC[C@]4(C)[C@H]3C(=O)C[C@@]21C 2.76%
Cc1cccc(NC(=O)CSc2nc(-c3ccccc3Cl)nc3c2Cc2c(CO)cnc(C)c2O3)c1C -12.6%
COc1ccc(CCNc2nc3c(-c4cccc(F)c4)nnn3c3ccccc23)cc1OC 12.8%
CC1CCN(c2nc3c(S(=O)(=O)c4ccc(Cl)cc4)nnn3c3ccsc23)CC1 4.44%
CCc1ccccc1NC(=O)c1ccc(CN2C(=O)CCn3nc(C)cc32)cc1 6.09%
Cc1ccccc1NC(=O)CSc1cn(CC(=O)N(C(C)C)C(C)C)c2ccccc12 -21.6%
COc1cc2c(cc1OC)n(Cc1ccc([N+](=O)[O-])cc1)c(=O)n1nc(-c3ccccc3)nc21 -8.51%
COc1cc(C(=O)N2CCOCC2)cc(OC)c1OC -3.71%
COc1cc2c(cc1OC)C(COc1ccc3c(C)cc(=O)oc3c1)N(C(=O)c1ccccc1F)CC2 (stereo not given) -3.98%
Cc1ccc(CNC(=O)CCNS(=O)(=O)c2cccc3nsnc23)cc1 -9.11%
CCn1cc(C(=O)N(C)c2ccc(C(C)C)cc2)c2cc(OC)c(OC)cc2c1=O -26%
